# Among all 310,000 compounds or so, about 2,200 (0.71%) showed an effect of 50% or more. Effects have a minus sign here. The list shows a part of the results.
# Target: human ether-à-go-go-related gene (hERG) potassium channel (human, UniProt Q12809)
# Assay: primary screen, population patch clamp on CHO cells stably expressing hERG
# Chain of human ether-à-go-go-related gene (hERG) potassium channel (Q12809 whole entry, looked up): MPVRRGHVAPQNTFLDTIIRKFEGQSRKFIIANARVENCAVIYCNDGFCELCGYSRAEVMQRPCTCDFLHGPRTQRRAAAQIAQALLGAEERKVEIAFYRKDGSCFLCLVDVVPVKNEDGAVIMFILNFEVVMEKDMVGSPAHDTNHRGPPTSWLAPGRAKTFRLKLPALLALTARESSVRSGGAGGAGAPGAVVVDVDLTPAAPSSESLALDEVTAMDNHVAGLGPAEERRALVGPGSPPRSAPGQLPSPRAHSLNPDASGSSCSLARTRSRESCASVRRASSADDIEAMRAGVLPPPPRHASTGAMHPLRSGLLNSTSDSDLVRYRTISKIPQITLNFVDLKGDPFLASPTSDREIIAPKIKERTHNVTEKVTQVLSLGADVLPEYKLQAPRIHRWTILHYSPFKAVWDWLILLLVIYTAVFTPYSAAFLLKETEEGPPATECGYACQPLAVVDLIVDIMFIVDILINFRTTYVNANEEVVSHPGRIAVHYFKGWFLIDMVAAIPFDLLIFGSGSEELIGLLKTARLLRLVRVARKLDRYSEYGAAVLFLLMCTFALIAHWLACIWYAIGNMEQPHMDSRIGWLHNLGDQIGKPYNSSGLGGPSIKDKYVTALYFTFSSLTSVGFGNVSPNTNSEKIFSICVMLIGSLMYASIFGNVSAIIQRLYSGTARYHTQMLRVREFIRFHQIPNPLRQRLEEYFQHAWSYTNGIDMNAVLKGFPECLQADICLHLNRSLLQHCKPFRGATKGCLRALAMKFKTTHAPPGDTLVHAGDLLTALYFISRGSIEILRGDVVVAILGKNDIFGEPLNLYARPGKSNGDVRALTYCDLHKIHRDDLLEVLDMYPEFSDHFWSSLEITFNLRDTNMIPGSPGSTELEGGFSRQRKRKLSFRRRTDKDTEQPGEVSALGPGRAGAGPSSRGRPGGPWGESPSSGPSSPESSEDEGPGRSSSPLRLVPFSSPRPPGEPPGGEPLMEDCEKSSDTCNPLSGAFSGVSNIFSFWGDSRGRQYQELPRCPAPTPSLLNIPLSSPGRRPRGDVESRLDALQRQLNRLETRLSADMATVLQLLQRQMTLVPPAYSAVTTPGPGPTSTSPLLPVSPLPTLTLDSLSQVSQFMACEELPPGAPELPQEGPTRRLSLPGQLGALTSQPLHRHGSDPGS
row,Structure (SMILES),"hERG current change (%, negative = inhibition) at 1uM [%]"
1,Cc1ccc(NC2CCCN(C(=O)CN3C(=O)CSC3=O)C2)cc1C (stereo not drawn),12.7
2,Cc1cccc(C)c1NC(=O)COC(=O)c1ccccc1Nc1ccccc1,12.3
3,COc1cc(S(=O)(=O)N2CC(=O)Nc3ccccc32)ccc1NC(C)=O,11.8
4,Cc1ccn(-c2ccc(NC(=O)c3cccs3)cc2)n1,6.58
5,Clc1ccccc1OCCCCN1CCNCC1.O=C(O)C(=O)O,15.3
6,COc1ccc(CNC(=O)Nc2cc(C)cc(C)c2)cc1,9.48
7,Cc1ccc(/C=N/n2cnnc2)s1,-13.5
8,NC(=O)CC(NC(=O)c1cccc(Br)c1)c1ccc(N2CCC(Br)CC2)c([N+](=O)[O-])c1 (stereo not drawn),10.7
9,Cc1cccc(N2N=C(C(=O)N3CC(=O)Nc4ccccc43)CCC2=O)c1,12.8
10,CCSC1=NC2(CCCCC2)[NH2+]c2sc3c(c21)CCCC3.[I-],13.7
11,Cc1ccc(S(=O)(=O)N2CCN(S(=O)(=O)N3CCOCC3)CC2)cc1C,8.51
12,Nc1ncnc(NNC(=O)CNC(=O)c2c(F)cccc2Cl)c1[N+](=O)[O-],9.74
13,Cc1cc(O)cc2c1C(c1ccc(F)cc1)CC1(CC(C)(C)NC(=S)N1)O2 (stereo not drawn),13.2
14,CCOC(=O)Cn1cnc(-c2ccc([N+](=O)[O-])cc2)c1,5.86
15,CC(C)c1nn2c(=O)cc(CSc3ccccc3NC(=O)c3ccccc3F)nc2s1,4.94
16,COC(=O)CN(n1cnnc1)S(=O)(=O)c1ccc(C)cc1,10.2
17,COc1cccc(C(=O)COC(=O)c2ccc(NC(=O)c3ccccc3)cc2)c1,13.7
18,Cc1ccccc1CN(C)C(C)C(=O)Nc1ccccc1F (stereo not drawn),7.42
19,COC(=O)[C@H]1[C@@H](C)N(Cc2ccccc2)C(=O)N[C@H]1c1ccccc1,10.2
20,COCCOc1ccc(C(F)(F)F)cc1NC(=O)c1ccc(C(F)(F)F)cc1,4.7
21,Cc1nc(-c2cccc(NC(=O)c3ccc(-n4cccn4)cc3)c2)cs1,12.6
22,Cc1cc(C(=O)N2CCN(C(c3ccccc3)c3ccccc3)CC2)no1,4.49

row,Structure (SMILES),"hERG current change (%, negative = inhibition) at 1uM [%]"
1,O=C(CS(=O)(=O)c1cn(CC(=O)N2CCOCC2)c2ccccc12)Nc1ccccc1,9.5
2,CCOC(=O)CNC(=O)C1CCC(CNS(=O)(=O)c2cccc3nsnc23)CC1 (stereo not drawn),19.5
3,Cc1ccc(O)c(CP(=O)(c2ccccc2)c2ccccc2)c1,3.31
4,CC1=NN(C(=O)CCc2ccc3c(c2)OCO3)C(O)(C(F)(F)F)C1 (stereo not drawn),19.1
5,CC(Nc1ccccc1CO)C(=O)Nc1cccc(Cl)c1Cl (stereo not drawn),11.4
6,COc1ccc(-c2c(C#N)c(C)nc3c2C(=O)c2ccccc2-3)cc1,7.82
7,Cn1c(=O)n(Cc2ccc(Br)cc2)c2ccccc21,6.61
8,COc1ccc(NC(=O)C/C(C)=N/NC(=O)CCc2ccccc2)c(OC)c1,11.6
9,COc1ccccc1N(C(=O)NCc1ccccc1)C1=NCC(C)S1 (stereo not drawn),17.5
10,CC(=O)c1c(C)[nH]c(C(=O)COC(=O)CN(C)S(=O)(=O)c2ccc(Cl)cc2)c1C,4.01
11,COC(=O)c1ccc(OC)c(CSc2nnc(COc3ccc(Cl)cc3)o2)c1,-9.46
12,COC(=O)c1ccc(Cn2nnc3ccccc32)cc1,12
13,COc1ccc(S(=O)(=O)NCC2CCC(C(=O)NCCCN3CCCC3=O)CC2)cc1 (stereo not drawn),17
14,O=C(O)Cc1ccc(NC(=O)Cc2ccc3ccccc3c2)cc1,15.2
15,CSc1ccccc1NC(=O)CN(C)CC(=O)Nc1ccc(N2CCOCC2)cc1,-4.34
16,COC(=O)C1C(c2ccc(Br)cc2)Nc2nnc(C(F)(F)F)n2C1(C)O.Cl (stereo not drawn),1.93
17,Cc1ccccc1NC(=O)c1ccc(NC(=O)C2CCCO2)cc1 (stereo not drawn),8.6
18,Cc1ccc(C(=O)Nc2ccc(NC(=O)c3ccco3)c(C)c2)cc1,11
19,CCN(Cc1ccccc1)Cc1nnnn1Cc1ccccc1,8.8
20,O=[N+]([O-])c1ccc(S(=O)(=O)Nc2cccc(-c3ccc(N4CCCC4)nn3)c2)cc1,9.9
21,COc1ccc2c(=O)cc(-c3cccnc3)oc2c1OC,18.5
22,CC(C)(C)OC(=O)N1CCN(c2ccc(CNC(=O)c3ccc(Cl)cc3)cc2)CC1,-1.45

row,Structure (SMILES),"hERG current change (%, negative = inhibition) at 1uM [%]"
1,CCC(C)(C)n1c(=O)[nH]c2c(c1=O)CCC2,12.3
2,Nn1cc(-c2ccccc2)nc1SCC(=O)N1CCN(S(=O)(=O)c2ccc(Cl)cc2)CC1,5.56
3,Cc1ccc(/C=N/NC(=O)c2ccc3nc[nH]c3c2)o1,11.9
4,CCCN1Cc2cccc(C(=O)NCCc3cccc(C)c3)c2C1=O,8.02
5,COc1ccc([N+](=O)[O-])cc1N(CC(O)CN(CC(C)C)CC(C)C)S(=O)(=O)c1ccccc1 (stereo not drawn),2.21
6,Cc1cc(Nc2ccc(C)c(C)c2)c2ccccc2n1,-11.4
7,CC(=O)c1cccc(NC(=O)/C(=C\c2ccco2)NC(=O)c2cccs2)c1,0.258
8,CN(C(=O)c1ccccc1Br)C1CCS(=O)(=O)C1 (stereo not drawn),4.02
9,Cc1ccc(C)c(CN2CCC(n3nccc3NC(=O)CCCc3ccccc3)CC2)c1,-11.4
10,COCCCN1C(=O)N(c2ccccc2)C(=O)C1CC(=O)Nc1ccc(F)cc1 (stereo not drawn),16.5
11,CC1CC(C)(C)N(C(=O)CN2C(=O)CCC2=O)c2ccccc21 (stereo not drawn),12.5
12,CCCNC(=O)c1nc2ncc(Br)cn2n1,-13.7
13,COc1ccc(CCNS(=O)(=O)c2ccc3c(c2)OCCO3)cc1OC,10.5
14,Cc1ccc(NC(=O)N(C)c2ccccc2)cc1,14.9
15,Cc1[nH]c2c(C)cccc2c(=O)c1CN1CCCCCC1,11.3
16,O=C(Cc1ccccc1Cl)Nc1ccc(S(=O)(=O)N2CCOCC2)cc1,6.89
17,CC(C)OP(=O)(OC(C)C)C(Nc1cccc(C(=O)O)c1)c1ccccc1 (stereo not drawn),8.41
18,COc1cc(NC(=O)c2cnc(N)o2)cc(C(=O)Nc2cccc(C(F)(F)F)c2)c1,8.84
19,CC1(C(=O)OCC(=O)NC(=O)c2ccccc2)CC1(Cl)Cl (stereo not drawn),7.05
20,Cc1ccc(N(CC(=O)N(C)Cc2ccccc2)S(C)(=O)=O)cc1C,6.77
21,CCCCCCCNC(=O)C1(CC2CC(c3ccc(Cl)cc3)=NO2)CCN(C(=O)c2cc(OCC)c(OCC)c(OCC)c2)CC1 (stereo not drawn),10.1
22,CC(C)(C)OC(=O)NCCCCC1=CC2=CC(=O)C(C)(OC(=O)c3cnc4ccccc4n3)C(=O)C2=CO1 (stereo not drawn),14.2

row,Structure (SMILES),"hERG current change (%, negative = inhibition) at 1uM [%]"
1,Cc1ccc(N2C(=O)C(Cl)=C(NCc3ccccc3)C2=O)c(C)c1,7.46
2,CCC1CCCCN1CCCNC(=O)c1cn(C)c2ccc(S(=O)(=O)N(C)C3CCCCC3)cc2c1=O (stereo not drawn),-2.04
3,O=C([O-])CC(=O)NC12CC3CC(CC(C3)C1)C2.[Na+],11.6
4,CCOc1ccccc1CN1C(=O)C2(OCCO2)c2ccccc21,13.6
5,Cc1ccc(C(=O)NS(=O)(=O)c2ccc(N=NN(C)C)cc2)cc1,12.2
6,CCC1CN(S(=O)(=O)c2cc(-c3cc(C)no3)ccc2OC)c2cc(C)ccc2O1 (stereo not drawn),-5.4
7,Cc1nnc(SC(C)C(=O)Nc2c(C)n(C)n(-c3ccccc3)c2=O)n1N (stereo not drawn),8.47
8,CC(O)[C@H]1CNC(=S)N1CCc1cccc(F)c1 (stereo partly drawn),16.6
9,COc1ccc(CNC(=O)C2CCCN(S(=O)(=O)c3cc(C)ccc3OC)C2)cc1 (stereo not drawn),6.66
10,CC[n+]1c(C)n(-c2ccccc2)c2ccc(NC(C)=O)cc21.[I-],13.4
11,CC1CC(C)CN(S(=O)(=O)c2ccc(C(=O)NCCCn3ccnc3)cc2)C1 (stereo not drawn),9.09
12,CCOC(=O)C1CCCN(C(=O)c2cn(C)c3ccc(S(=O)(=O)N4CCCC4)cc3c2=O)C1 (stereo not drawn),6.98
13,Cc1sc2nc(SC(C)C)nc(N)c2c1C,1.82
14,Cc1ccc(C(=O)N2CCOCC2)cc1S(=O)(=O)N1CCCCC1,12.7
15,CC(=O)c1ccc(N2CCN(S(=O)(=O)c3cc(-c4cc(C)no4)ccc3C(C)C)CC2)cc1,12.1
16,COc1cc2cc(C(N)=O)c(N)nc2cc1OC,-5.49
17,Cc1ccccc1N1CCN(C2CCCN(C(=O)c3snnc3C)C2)CC1 (stereo not drawn),13
18,O=C(NC1CCCCCCC1)NC1CCCCC1,-0.306
19,O=C(Nc1ccc([N+](=O)[O-])cc1)Nc1ccc(OC(F)F)c(Cl)c1,12.6
20,O=C(CN1C(=O)c2ccccc2C1=O)Oc1ccc(Cl)cc1,13.4
21,COc1ccc(-c2nc(CS(=O)CC(=O)NC3CCCCC3)c(C)o2)cc1 (stereo not drawn),-10.2

# From PMC4336329 (PLoS ONE, 2015)
